# Measured values: PubChem BioAssay AID743279 (National Center for Advancing Translational Sciences (NCATS), 2014)
# Hit rate of the full screen: of about 360,000 compounds, about 17,000 (4.7%) were called active. Inconclusive results, whose numbers are uncertain, are shown with a selection of clear calls. No stated cut-off is given here; in the data, active means activity change below about -50%; inconclusive means mostly about -30% to -49%; inactive means weaker than that.
# Assay: qHTS for Inhibitors of Inflammasome Signaling: IL-1-beta AlphaLISA Primary Screen
# Conditions: THP-1 LPS/ATP IL-1B secretion, 16 h; at 57.5 µM, active compounds read low
# Procedure, shortened: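 THP-1 cells pretreated 1 hr with compounds (up to 57.5 uM final), then stimulated with LPS (250 ng/mL final) plus ATP (1.25 mM final); secreted IL-1B measured by AlphaLISA after 16 hr, decreased signal indicating inhibition.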
# On the % scale 0 is the no-effect control and ±100 the full control effect.
row,SMILES,activity change
1,O=C(CCS(=O)(=O)c1ccc(F)cc1)Nc1nnc(-c2ccc(F)cc2)o1,inconclusive: -41.5%
2,COc1cc(C(C[N+](=O)[O-])c2c(-c3ccccc3)cc3ccccn23)cc(OC)c1OC (stereo unspecified),inconclusive: -45.6%
3,Cc1cc(C)nc(/N=C(\N)Nc2ccc(C)c([N+](=O)[O-])c2)n1,active: -112%
4,O=C(Cc1ccc2c(c1)CCCC2)Nc1ccccc1Cl,inconclusive: -39.8%
5,Cc1ccnc(SCC(=O)Nc2sc3c(c2C#N)CCCC3)n1,inconclusive: -45.7%
6,Cc1cc(C)c(C)c(S(=O)(=O)NC2CCN(Cc3ccccc3)CC2)c1C,active: -73.2%
7,COc1ccc(N(CC(=O)NCCOc2ccccc2)S(=O)(=O)c2ccc(C)cc2)cc1,inactive: -21.7%
8,COc1ccc(/C=C/c2c([N+](=O)[O-])c(=O)n(C)c(=O)n2C)c(OC)c1OC,active: -58.2%
9,COc1ccccc1CCNC(=O)c1cc(C2CC2)nc2c1cnn2C(C)C,inactive: -10.9%
10,COc1cc(C2c3cc4c(cc3OC(NNC(N)=O)C2C)OCO4)cc(OC)c1OC (stereo unspecified),active: -65.6%
11,CCc1nc2ccc(C(=O)NCCOc3ccc(OC)cc3)cn2c1N(CC)Cc1ccc(OC)c(OC)c1,inconclusive: -37.3%
12,COc1ccc2cc3cc(C(=O)NCc4cccs4)oc3nc2c1,active: -54.1%
13,CCN1CCCC1CNC(=O)c1ccc2c(c1)N(Cc1cccc(Cl)c1)C(=O)c1ccccc1S2(=O)=O (stereo unspecified),inconclusive: -44.9%
14,COc1cc(CNCc2ccccn2)ccc1OCc1ccc(Cl)c(Cl)c1,active: -92.8%
15,O=S(=O)(c1ccccc1)c1nc(-c2ccccc2F)oc1NCc1cccnc1,inconclusive: -30%
16,Cc1nc2ccc(NC(=O)c3cc([N+](=O)[O-])cc([N+](=O)[O-])c3Cl)cc2s1,inconclusive: -38.3%
17,CCOc1cc(/C=C2\SC(=O)N(CC(=O)Nc3ccccc3F)C2=O)cc([N+](=O)[O-])c1O,inactive: -19.9%
18,Cc1cc(NCC2CCCCC2)nc2ccccc12,active: -100%
19,Cc1ccc(C(=O)Nc2ccc(N3CCOCC3)c3nonc23)cc1[N+](=O)[O-],inactive: 21.6%
20,COc1ccc(-c2cc(C)no2)cc1S(=O)(=O)NCC1CCN(Cc2cc(C)ccc2C)CC1,inconclusive: -30.3%
21,O=C(Nc1cc(C(F)(F)F)ccc1-n1cncn1)c1ccc(Cl)cc1,inconclusive: -30.7%
22,CCOC(=O)C(=O)N1CCC(Cc2ccccc2)CC1,inconclusive: -39.6%

row,SMILES,activity change
1,Cc1ccc(Nc2nc(N)nc(CSC(=S)N3CCOCC3)n2)cc1,inconclusive: -34.9%
2,NS(=O)(=O)c1ccc(NC(=O)COC(=O)/C=C/c2ccc([N+](=O)[O-])cc2)cc1,inactive: 0%
3,CC1(c2ccc3ccccc3c2)NC(=O)N(CC(=O)N2CCN(Cc3ccccc3)CC2)C1=O (stereo unspecified),inconclusive: -42%
4,CC(Sc1nc2ccccc2c(=O)n1CCc1ccc(S(N)(=O)=O)cc1)C(=O)NC(N)=O (stereo unspecified),inconclusive: -36%
5,CCN(CC(=O)NCc1ccc(F)cc1)C(=O)c1cccnc1SC,inactive: 25.3%
6,Cc1c(C(=O)N(C)c2ccc(Cl)cc2)cnn1-c1ccccc1,inactive: -11.1%
7,c1ccc2cc(CNCc3cccc4ccccc34)ccc2c1,inconclusive: -31.8%
8,C=C1C(=O)OC2C=C(CO)C3OC3C3OC3(C)CC(OC(=O)/C(=C/C)COC(C)=O)C12 (stereo unspecified),active: -101%
9,c1ccc(Nc2cc(-c3ccccc3)nc3ncnn23)cc1,inconclusive: -45%
10,N#Cc1cnc2nc(SCc3ccccc3)nn2c1,active: -69.5%
11,COc1ccc(SN=C2C(C)=CC(=O)C=C2C)cc1,inconclusive: -34.6%
12,COc1cccc(OC)c1C(=O)Nc1cc2c(cc1N1CCOCC1)n(C)c(=O)n2C,inconclusive: -31.7%
13,CC(C)CCn1c(C(C)O)nc2ccccc21 (stereo unspecified),inactive: 9.86%
14,CCn1c(=O)c2cc(C(=O)NCCN3CCOCC3)sc2c2ccccc21,inconclusive: -34.9%
15,CN(C)Cc1csc(NC(=O)Nc2ccccc2-c2ccccc2)n1,inconclusive: -47.6%
16,Cc1ccc(S(=O)(=O)Nc2cc(C(F)(F)F)ccc2N2CCOCC2)c(C)c1,inconclusive: -32.6%
17,CC(C)(C)S(=O)N1Cc2cc(=O)n(Cc3ccccc3)c(CCO)c2[C@H]1CCO (stereo partly specified),inconclusive: -38.4%
18,O=S(=O)(c1ccc(F)cc1)N1CCN(c2ccccc2)CC1,inconclusive: -48.6%
19,COc1ccccc1NC(=O)c1nc(S(=O)(=O)Cc2ccccc2)ncc1Cl,active: -102%
20,O=c1[nH]c(N2CCCCC2)nc2ncn(Cc3ccccc3)c12,inconclusive: -36.7%
21,CNC(=O)c1[nH]nc2c1CCc1cc(OC)ccc1-2,inconclusive: -36.6%
22,NC(=O)CC(NC(=O)c1cccc(Br)c1)c1ccc(NC2CCN(Cc3ccccc3)CC2)c([N+](=O)[O-])c1 (stereo unspecified),inconclusive: -35.2%

row,SMILES,activity change
1,Cc1ccc(C)c(S(=O)(=O)NCCCc2ccccc2)c1,active: -56.9%
2,CCc1ccc(C(O)c2ncc(-c3cccc(OC)c3)[nH]2)cc1 (stereo unspecified),inactive: 17.1%
3,Cc1ccc(S(=O)(=O)CCc2nc3ccccc3[nH]2)cc1,inconclusive: -37.8%
4,O=C(NC1CCCC1)c1ccc2nc(-c3ccco3)c(-c3ccco3)nc2c1,inconclusive: -48%
5,CC(C)(C)NC(=O)CON=C1c2ccccc2-c2ccccc21,inconclusive: -44.2%
6,CC(C)(C)c1ccc(C(=O)N2CCC(C(=O)NC3CCCCCC3)CC2)cc1,inconclusive: -37.2%
7,O=C(NCCCCc1ccccc1)c1cccc([N+](=O)[O-])c1,inactive: -5.38%
8,O=C(CN1CCN(S(=O)(=O)c2ccccc2)CC1)Nc1ccc2c(c1)CCC2,inconclusive: -33.6%
9,Cc1nc2cc(-c3ccc(Cl)cc3)nn2c(NCCN(C)C)c1C,active: -75.4%
10,CCCN(CCC)C1=CC(=[N+]2CCCC2)CC(C)(C)C1,inconclusive: -32.7%
11,COc1cc2nc(N(CCCN(C)C)C(=O)c3ccc(C(=O)c4ccccc4)cc3)sc2cc1OC,active: -105%
12,COc1ccccc1-c1nnc(SCC(=O)NC2CCCCC2)n1C,inactive: 15.1%
13,COC(=O)COc1ccc(NC(=O)c2ccco2)cc1,inconclusive: -43.8%
14,Brc1ccccc1/C=N/Nc1ccccn1,inactive: -1.93%
15,N=c1n(CCN2CCCCC2)c2ccccc2n1CC(O)c1ccc(Cl)c(Cl)c1 (stereo unspecified),active: -67.9%
16,CC1CCN(CCCNC(=O)c2ccc(CSCc3cccc(Cl)c3)o2)CC1,inconclusive: -35.5%
17,CCCN(CCC)CC(O)CN(c1cc([N+](=O)[O-])ccc1OC)S(=O)(=O)c1ccccc1 (stereo unspecified),inconclusive: -33.2%
18,CC(=O)N1CCC2(CC1)C/C(=N\NC(=S)Nc1ccccc1F)c1cc(O)ccc1O2,active: -76%
19,COc1ccc(S(=O)(=O)NNC(=O)c2cc3ccccc3o2)cc1,inactive: 5.5%
20,COc1ccc(CNC2CCSc3ccccc32)cc1OC (stereo unspecified),inconclusive: -46.2%
21,Cc1ccc(Oc2c(C(N)=O)cc([N+](=O)[O-])cc2[N+](=O)[O-])cc1,active: -85.1%
22,O=C(Nc1ccc2c(c1)OCO2)c1ccc(Cl)cc1Cl,inconclusive: -37.9%

row,SMILES,activity change
1,CCN(C(=O)C(C)OC(=O)C1C(C(=O)OC)=C(C)NC(C)=C1C(=O)OC)c1ccccc1 (stereo unspecified),inactive: -7.79%
2,Cc1ccc(C)c(NC(=O)CN(C)C(C)C(=O)N2CC(C)CC(C)C2)c1 (stereo unspecified),inactive: 9.88%
3,CCC1CCC2(CC1)NC(CO)(CO)CO2 (stereo unspecified),inactive: -7.25%
4,COC1OC(COCc2ccccc2)C(N)C(OCc2ccccc2)C1OCc1ccccc1 (stereo unspecified),inconclusive: -46.4%
5,Cc1ccc(S(=O)(=O)N2CCN(C(=O)c3cc(C4CC4)nc4c3cnn4C(C)C)CC2)cc1,inconclusive: -31.9%
6,CSc1ccc(Cl)c(C(=O)NCCOc2ccccc2)c1,inconclusive: -36.9%
7,O=C(CCSc1ccccn1)c1ccccc1,inconclusive: -30.4%
8,O=C(NCC1CCCO1)c1ccc2c(c1)N(Cc1ccc(Cl)cc1)CCS2 (stereo unspecified),inconclusive: -36.4%
9,Cc1cc(NC(=S)N(CCN2CCOCC2)Cc2ccccc2F)ccc1Cl,active: -58.5%
10,O=C(CCSCc1ccccc1F)NCc1ccc(F)cc1,inactive: 17.6%
11,OC(CC1CC12c1ccccc1-c1ncccc12)(c1ccccc1)c1ccccc1 (stereo unspecified),inconclusive: -46.6%
12,Cc1ccc(-c2cc(C(F)F)n3ncc(C(=O)N4CCN(c5ccccn5)CC4)c3n2)cc1,inactive: -8.12%
13,COc1cc(OC)c(C2C=CC(=O)CC2)c(OC)c1 (stereo unspecified),inconclusive: -49.7%
14,CSc1ccc(/C=N/n2c(C)cc(C)cc2=O)cc1,inconclusive: -33.7%
15,C#CCOCCOCCOCCNc1nc(N2CCN(C(=O)CCCCCCCCCCNC(=O)[C@@H](CCSC)n3cc(CCO)nn3)CC2)nc(N2CCN(C(=O)CCCCCCCCCCNC(=O)[C@@H]([C@H](C)O)n3cc(C)nn3)CC2)n1,inconclusive: -34.9%
16,Cc1ccc(CN=C2Nc3ccccc3CS2)cc1,inconclusive: -48.4%
17,COc1cc(CNCCCN2CCOCC2)ccc1OCC(=O)Nc1cccc(C(F)(F)F)c1,inconclusive: -47%
18,CC1CCCN(CCCNC(=O)c2ccc3c(c2)N(Cc2cccc(Cl)c2)C(=O)c2ccccc2S3=O)C1 (stereo unspecified),inconclusive: -35.4%
19,COc1cc(-c2nnc(-c3ccccc3)o2)cc(OC)c1OC,inconclusive: -46.3%
20,COc1ccc(CNC(=O)CCCn2c(=O)c3cccn3c3cccnc32)cc1,inconclusive: -47%
